Experiment [1] addresses T1, GST-PER2(356–574) (human) (UniProt O15055).
T1 sequence: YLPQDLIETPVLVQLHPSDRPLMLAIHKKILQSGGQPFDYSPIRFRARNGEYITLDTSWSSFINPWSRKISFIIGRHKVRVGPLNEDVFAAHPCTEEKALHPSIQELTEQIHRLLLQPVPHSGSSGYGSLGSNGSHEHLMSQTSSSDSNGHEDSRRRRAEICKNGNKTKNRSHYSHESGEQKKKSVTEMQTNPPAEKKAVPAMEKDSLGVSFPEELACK
Nature of the experiment: pull-down; 20 μg GST fusion protein on glutathione-Sepharose beads with 3 μL in vitro translated [35S]-labelled protein; 20 mM Tris-HCl pH 7.4, 100 mM NaCl, 5 mM EDTA, 0.1 % Triton X-100; 1 h at 4 °C; washes with 100 mM and 1 M NaCl; autoradiography; only the target purified.

Sequences of proteins named here, by UniProt entry; tags and fusion partners are left off. Residues count along the entry.
BRCA1 residues 1–400 (N-terminal domain) prey in pTRG (P38398, residues 1-400): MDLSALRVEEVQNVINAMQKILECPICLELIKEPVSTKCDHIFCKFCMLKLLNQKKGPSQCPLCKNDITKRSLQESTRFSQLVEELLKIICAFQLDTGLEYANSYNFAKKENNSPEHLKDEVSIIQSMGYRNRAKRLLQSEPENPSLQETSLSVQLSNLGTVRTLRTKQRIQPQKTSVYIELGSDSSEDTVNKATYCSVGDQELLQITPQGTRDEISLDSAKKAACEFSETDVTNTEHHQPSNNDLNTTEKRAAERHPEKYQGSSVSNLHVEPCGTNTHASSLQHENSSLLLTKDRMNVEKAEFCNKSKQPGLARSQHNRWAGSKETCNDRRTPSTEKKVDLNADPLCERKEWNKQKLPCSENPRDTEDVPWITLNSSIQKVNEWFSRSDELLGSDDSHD
FLAG-BRCA1 (1–178), in vitro translated (P38398, residues 1-178): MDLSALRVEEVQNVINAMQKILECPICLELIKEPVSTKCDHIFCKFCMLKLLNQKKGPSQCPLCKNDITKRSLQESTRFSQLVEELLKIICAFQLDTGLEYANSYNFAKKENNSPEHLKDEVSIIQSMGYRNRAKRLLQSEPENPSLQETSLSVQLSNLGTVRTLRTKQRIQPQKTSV

The target of experiment [2] is T2, GST-PER2(683–872) (human) (UniProt O15055).
T2 sequence: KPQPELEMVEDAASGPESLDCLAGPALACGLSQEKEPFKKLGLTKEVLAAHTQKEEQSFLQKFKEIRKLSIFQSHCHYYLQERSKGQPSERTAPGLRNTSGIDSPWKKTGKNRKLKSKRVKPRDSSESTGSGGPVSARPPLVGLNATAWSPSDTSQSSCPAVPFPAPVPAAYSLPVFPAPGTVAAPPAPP
Described as above.

Experiment [3] has as its target T3, GST-PER2(873–1120) (human) (UniProt O15055).
T3 sequence: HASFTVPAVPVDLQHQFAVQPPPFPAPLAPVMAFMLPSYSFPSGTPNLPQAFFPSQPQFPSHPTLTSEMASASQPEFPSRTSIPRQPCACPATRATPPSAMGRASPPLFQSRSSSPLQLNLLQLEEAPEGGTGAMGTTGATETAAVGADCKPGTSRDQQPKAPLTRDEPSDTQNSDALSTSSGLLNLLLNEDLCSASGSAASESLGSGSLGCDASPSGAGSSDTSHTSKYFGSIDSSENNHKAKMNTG
Nature of the experiment: condition: 20 μg GST fusion protein, 3 μL in vitro translated protein; pull-down; 20 μg GST fusion protein on glutathione-Sepharose beads with 3 μL in vitro translated [35S]-labelled protein; 20 mM Tris-HCl pH 7.4, 100 mM NaCl, 5 mM EDTA, 0.1 % Triton X-100; 1 h at 4 °C; washes with 100 mM and 1 M NaCl; autoradiography; only the target purified.

Experiment [4] deals with T4, GST-PER2(575–682) (human) (UniProt O15055).
T4 sequence: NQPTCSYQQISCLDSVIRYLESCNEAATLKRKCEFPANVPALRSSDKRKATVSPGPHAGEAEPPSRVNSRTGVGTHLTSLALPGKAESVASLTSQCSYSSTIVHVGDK
The description is as above.

Experiment [5] has as its target T5, GST-PER2(1121–1255) (human) (UniProt O15055).
T5 sequence: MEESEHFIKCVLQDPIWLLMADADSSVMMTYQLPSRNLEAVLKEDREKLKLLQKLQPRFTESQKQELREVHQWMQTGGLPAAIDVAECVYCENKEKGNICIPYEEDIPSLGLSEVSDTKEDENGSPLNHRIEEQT
The experiment is described as above.

In experiment [6] the target is T6, GST-PER2(173–355) (human) (UniProt O15055).
T6 sequence: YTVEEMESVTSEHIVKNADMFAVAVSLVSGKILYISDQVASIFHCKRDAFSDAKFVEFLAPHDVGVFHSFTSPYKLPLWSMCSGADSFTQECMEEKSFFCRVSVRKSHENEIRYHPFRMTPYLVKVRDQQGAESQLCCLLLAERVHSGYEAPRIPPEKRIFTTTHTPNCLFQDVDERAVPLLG
Described as above.

A further experiment has as its target T7, GST-PER2(1–172) (human) (UniProt O15055).
T7 sequence: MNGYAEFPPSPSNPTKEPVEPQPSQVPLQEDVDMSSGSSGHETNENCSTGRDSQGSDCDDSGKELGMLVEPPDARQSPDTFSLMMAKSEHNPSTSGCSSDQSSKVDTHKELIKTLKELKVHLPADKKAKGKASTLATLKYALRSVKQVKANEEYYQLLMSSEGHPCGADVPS
Described as above.

Experiment [7] concerns the target T8, pBT-PER2 (residues 1-1255), full-length human PER2 bait (human) (UniProt O15055).
T8 sequence: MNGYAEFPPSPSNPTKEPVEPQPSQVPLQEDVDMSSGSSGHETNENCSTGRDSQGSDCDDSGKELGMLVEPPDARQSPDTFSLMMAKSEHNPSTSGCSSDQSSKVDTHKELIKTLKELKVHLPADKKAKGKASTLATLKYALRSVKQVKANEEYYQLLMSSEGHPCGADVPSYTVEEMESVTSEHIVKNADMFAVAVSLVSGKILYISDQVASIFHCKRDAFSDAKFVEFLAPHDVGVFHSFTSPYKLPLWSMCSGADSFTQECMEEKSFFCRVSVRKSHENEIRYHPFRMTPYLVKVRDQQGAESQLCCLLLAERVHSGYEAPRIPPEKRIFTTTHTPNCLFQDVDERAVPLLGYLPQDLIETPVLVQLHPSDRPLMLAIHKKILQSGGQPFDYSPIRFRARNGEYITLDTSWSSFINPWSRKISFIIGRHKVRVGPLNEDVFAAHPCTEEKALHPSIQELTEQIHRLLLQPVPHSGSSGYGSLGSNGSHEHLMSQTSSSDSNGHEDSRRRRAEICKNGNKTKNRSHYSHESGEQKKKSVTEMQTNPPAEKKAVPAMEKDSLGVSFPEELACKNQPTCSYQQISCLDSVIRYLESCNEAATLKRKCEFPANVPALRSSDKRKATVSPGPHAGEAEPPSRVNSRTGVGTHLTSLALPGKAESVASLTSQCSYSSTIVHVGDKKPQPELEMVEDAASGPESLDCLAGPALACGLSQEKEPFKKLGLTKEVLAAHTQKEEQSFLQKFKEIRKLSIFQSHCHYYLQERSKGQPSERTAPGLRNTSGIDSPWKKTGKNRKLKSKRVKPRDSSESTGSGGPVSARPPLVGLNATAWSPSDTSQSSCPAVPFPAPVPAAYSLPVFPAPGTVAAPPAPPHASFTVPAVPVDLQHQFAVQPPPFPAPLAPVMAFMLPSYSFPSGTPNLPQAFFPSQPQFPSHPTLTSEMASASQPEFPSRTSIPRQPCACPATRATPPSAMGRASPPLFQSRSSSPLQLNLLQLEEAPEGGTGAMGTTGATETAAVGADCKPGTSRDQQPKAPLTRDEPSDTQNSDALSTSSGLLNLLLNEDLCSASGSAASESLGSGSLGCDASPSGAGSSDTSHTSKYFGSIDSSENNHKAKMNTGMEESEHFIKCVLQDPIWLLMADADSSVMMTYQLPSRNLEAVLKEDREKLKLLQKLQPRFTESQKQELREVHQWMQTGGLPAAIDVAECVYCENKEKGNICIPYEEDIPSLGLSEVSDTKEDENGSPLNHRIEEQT
Nature of the experiment: two-hybrid; BacterioMatch II bacterial two-hybrid, direct co-transformation of defined pBT-PER2 baits and pTRG-BRCA1 preys; growth on Tet/Cam, Tet/Cam/3-AT and Tet/Cam/3-AT/Str.

Experiment [8] deals with T9, PER2(683–872) bait in pBT (human) (UniProt O15055).
T9 sequence: T2 sequence
Described as above.

Experiment [9] addresses T10, PER2(822–1255) bait in pBT (human) (UniProt O15055).
T10 sequence: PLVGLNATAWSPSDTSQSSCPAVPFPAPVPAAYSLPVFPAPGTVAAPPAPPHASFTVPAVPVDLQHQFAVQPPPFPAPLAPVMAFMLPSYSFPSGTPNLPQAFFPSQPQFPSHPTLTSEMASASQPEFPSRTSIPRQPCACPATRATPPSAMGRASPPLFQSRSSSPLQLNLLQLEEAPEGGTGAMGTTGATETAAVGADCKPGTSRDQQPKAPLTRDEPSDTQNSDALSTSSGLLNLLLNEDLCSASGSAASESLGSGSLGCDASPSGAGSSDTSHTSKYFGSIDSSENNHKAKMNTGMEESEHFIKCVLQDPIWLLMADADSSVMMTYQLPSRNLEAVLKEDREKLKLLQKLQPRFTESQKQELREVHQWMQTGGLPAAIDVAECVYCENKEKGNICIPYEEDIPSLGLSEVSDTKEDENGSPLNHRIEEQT
The experiment is described as above.

The target of experiment [10] is T11, PER2(356–574) bait in pBT (human) (UniProt O15055).
T11 sequence: T1 sequence
The description is as above.

Experiment [11] addresses T8, pBT-PER2 (residues 1-1255), full-length human PER2 bait (human). Nature of the experiment: two-hybrid; BacterioMatch II bacterial two-hybrid screen: PER2 bait in pBT against a human liver cDNA library in pTRG; selection on 5 mM 3-AT, then 3-AT plus streptomycin; 37 °C.

From PMC13280575 come the findings set out here.

These are yes or no findings as the source states them, for the method shown. For some of these results: Binding seen in cells or lysates may run through a third protein. Some binding calls cover weakened binding; strength is not graded here. For some of these results: Where a sequence is shown, tags or fusion partners need not be part of it.

On to “(myc)6-BRCA1 (1–400), in vitro translated (from UniProt P38398 1-400) (domain or fragment)”, for which the binding result was “binds” in [1]; “binds” in experiment [2]; “no binding” in experiment [3]; “no binding” in [4]; “no binding” in experiment [5]; “no binding” in experiment [6]. In addition, in the experiment with GST-PER2(1–172) (human), the binding result was “no binding”.
Take “BRCA1 residues 1–400 (N-terminal domain) prey in pTRG (from UniProt P38398 1-400) (domain or fragment)”: the binding entry in [7], in experiment [8], in experiment [9], in experiment [10] and in [11] was “binds” in each case.
On to “FLAG-BRCA1 (1–178), in vitro translated (from UniProt P38398 1-178) (domain or fragment)”, for which the binding result is listed as “binds” in experiment [1]; “binds” in [2]; “no binding” in [3]; “no binding” in experiment [4]; “no binding” in experiment [5]; “no binding” in experiment [6]. Also, the binding entry with GST-PER2(1–172) (human) was “no binding”.
